Measured values from ChEMBL document CHEMBL1201862, “PubChem BioAssay data set” (2004).
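Method: 48-hour compound exposure of cells in 96-well plates, five concentrations, linear interpolation of endpoints. Here, GI50 denotes the concentration required for 50% inhibition of growth.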 Calls of active or inactive are those of the source. Cut-off read from the data, not from the text of the source: active = GI50 up to about 1.1 µM and inactive = higher.

tested on: NCI-H322M; assay: DTP human tumour cell line panel, 48 h

Row | SMILES | GI50
1 | CCOC(=O)Cc1c(C)c2cc(C(=O)c3ccccc3)c(O)cc2oc1=O | inactive: 42.3 µM
2 | O=C(/C=C/c1ccc(O)c(O)c1)OC1C[C@@](O)(C(=O)O)C[C@@H](O)[C@H]1OC(=O)/C=C/c1ccc(O)c(O)c1 (stereo not given in full) | inactive: > 100 µM
3 | CCCCCC#COC1CC(C)CC[C@@H]1C(C)C (stereo not given in full) | inactive: > 100 µM
4 | CNc1ncnc2c1cnn2COCC(O)CO (stereo not given) | inactive: > 100 µM
5 | NS(=O)(=O)c1ccc(N2C(=O)C(=O)N(c3ccccc3)C2=S)cc1 | inactive: > 100 µM
6 | COc1c(-c2cc(C)c(Cl)c(=O)[nH]2)c(O)c(OC)c2occc12 | inactive: > 100 µM
7 | CCOc1ccc2c(c1)NC(=O)C(C1OC(c3ccccc3)=CC1=O)S2 (stereo not given) | inactive: 41.5 µM
8 | N=C(N)NS(=O)(=O)c1ccc(NC(=O)c2cccc3c(NNc4ccc(S(=O)(=O)N=C(N)N)cc4)c4ccccc4nc23)cc1 | inactive: 62.4 µM
9 | CN(C)CC1CCCCCCCCCC(CN(C)C)C1=O (stereo not given) | inactive: > 100 µM
10 | O=C(NCc1ccncc1)C1COc2cc(-c3cc(=O)c4ccccc4o3)ccc2O1 (stereo not given) | inactive: > 100 µM
11 | CCCCN1C(=O)CC2[C@@H]3CCc4cc(OC)ccc4C3CC[C@]2(C)C1=O (stereo not given in full) | inactive: > 10 µM
12 | O=C(c1ccsc1)c1nccc2c1cnc1ccccc12 | inactive: > 100 µM
13 | COc1ccc2[nH]cc(CCNC(=O)[C@](O)(Cc3cn(C)c4ccccc34)[C@@]3(O)OCC(O)C3O)c2c1 (stereo not given in full) | inactive: > 100 µM
14 | CC(C)OP(=O)(OC(C)C)/C(C#N)=C/c1c[nH]c2ccccc12 | inactive: > 100 µM
15 | COC(=O)[C@H](C)N1C(=O)N[C@@H](C(C)C)C1=O | inactive: > 100 µM
16 | O=C(C=C1SCCS1)/C=C\c1ccc(Cl)cc1 | inactive: 90.4 µM
17 | O=C(/C=C/c1ccccc1)CC(=O)CCC(=O)Nc1ccc(Cl)cc1 | inactive: > 100 µM
18 | CC(=O)n1nc(-c2[nH]c(C)c(-c3nn(C(C)=O)c(=S)o3)c2C)oc1=S | inactive: > 100 µM
19 | CN1CSC(=S)N(c2cccc(C(F)(F)F)c2)C1 | inactive: 31 µM
20 | NC(=O)C(=O)N/N=C1\C(=O)N(c2ccc(Cl)cc2Cl)C(=O)C1C(=O)Nc1ccc(Cl)cc1Cl (stereo not given) | inactive: > 100 µM
21 | CN(CCCNCc1ccccn1)Cc1ccccc1O | inactive: 36.6 µM
22 | C/C=C1/CN2CCC34C5=CC(=O)C(c6cc7c(cc6OC)N(C)C6=C(C(=O)OC)CC8(CC)CCCN9CCC67C98)=CC5=NC23CCC1C4C(=O)OC (stereo not given) | inactive: 17.3 µM
23 | COc1cc(Nc2nc3cc(N)cc(N)c3nc2-c2ccccc2)cc(OC)c1OC | inactive: 24.8 µM

Row | SMILES | GI50
24 | Cc1cc2c(cc1Cl)Sc1n[nH]c(=O)n1S2(=O)=O | inactive: 61.5 µM
25 | CC(=O)c1c(C)cc2cccc(OC3OC(CO)C(O)C(O)C3O)c2c1O.CC1OC(O)C(O)C(O)C1O (stereo not given) | inactive: > 100 µM
26 | CC1=CC(=O)c2cccc(O)c2C1=O | inactive: 18.3 µM
27 | O=C1c2ccccc2-c2ccc(O)cc21 | inactive: 16.8 µM
28 | COC(=O)C1=C(C)N(NC(=O)Nc2ccccc2)C2(N)N(NC(=O)Nc3ccccc3)C(C)=C(C(=O)OC)C12C(=O)OC (stereo not given) | inactive: 57.1 µM
29 | O=C(c1ccccc1)n1c2ccc(Br)cc2c2nc3ccccc3nc21 | inactive: > 100 µM
30 | COC(=O)/C(=N\O)C(C(=O)C=C(C)C)C(=O)C(=O)Nc1ccccc1C (stereo not given) | inactive: > 100 µM
31 | CC12C/C(=C\c3ccccc3)C(=O)C3C1CCCC32 | inactive: > 100 µM
32 | O=C1OC2C(O)COC2(O)C1(O)C(C[N+](=O)[O-])c1ccc(Cl)cc1 (stereo not given) | inactive: 16.4 µM
33 | Cc1ccc(-c2nc(N/N=C/c3ccc(O)cc3)c3ccccc3n2)cc1 | inactive: 9.51 µM
34 | COC1CC(O[C@H]2CC[C@@]3(C)[C@@H](CC[C@]4(O)[C@@H]3CC[C@]3(C)[C@@H](C(C)=O)[C@H](OC(=O)CC(C)C)[C@@H](OC(=O)c5ccccc5)[C@@]34O)C2)OC(C)C1OC1CC(OC)C(OC2OC(C)C(O)C(OC)C2O)C(C)O1 (stereo not given in full) | inactive: 10.9 µM
35 | CC1CC/C(=C\c2ccc(N(C)C)cc2)C2=C1C(c1ccc(N(C)C)cc1)NC(=S)N2 (stereo not given) | inactive: > 100 µM
36 | C=C(C(=O)OC)N1C(=O)CC(C)C1=O (stereo not given) | inactive: 44.2 µM
37 | Cc1ccc(S(=O)(=O)NNC(=O)Nc2cccc(C(F)(F)F)c2)cc1 | inactive: > 100 µM
38 | Cc1[nH]c2ncn(/N=C/c3ccccc3)c(=N)c2c1Cc1ccccc1 | inactive: > 100 µM
39 | CC1CC(c2ccccc2)=Nc2ccccc2S1 (stereo not given) | inactive: > 100 µM
40 | CC(C)=C[C@@H]1C[C@H](C)c2c(O)cc(C)c3c2C1=C(C)C(=O)C3=O [ELISABATIN A] | inactive: 12.9 µM
41 | CC1(C)OC[C@@]2([C@@H]3CC[C@@H](C3)C2(C)C)N1O | inactive: > 100 µM
42 | N#Cc1c(N)nc(Sc2ccccc2N)c(C#N)c1-c1ccc(Cl)cc1 | inactive: 19.3 µM
43 | O=C1Nc2ccccc2C12CCCC2 | inactive: > 100 µM
44 | O=C1c2cc([N+](=O)[O-])sc2C(=O)c2ccsc21 | inactive: 1.65 µM
45 | CC(C)CC(NC(=O)C(Cc1ccccc1)NC(=O)[C@H]1CC[C@H](NC(=O)C(Cc2ccc(OC(C)(C)C)cc2)NC(=O)OC(C)(C)C)C1)C(N)=O (stereo not given in full) | inactive: 40.6 µM
